# Reference: paper PMC4336329 (PLoS ONE, 2015)
# The campaign covered roughly 310,000 compounds. About 2,200 (0.71%) showed an effect of 50% or more. The effect is printed as a negative number. The list shows a part of the results.
# Target: human ether-à-go-go-related gene (hERG) potassium channel (human, UniProt Q12809)
# Test: primary screen, population patch clamp on CHO cells stably expressing hERG
# Sequence of human ether-à-go-go-related gene (hERG) potassium channel (Q12809 whole entry, looked up): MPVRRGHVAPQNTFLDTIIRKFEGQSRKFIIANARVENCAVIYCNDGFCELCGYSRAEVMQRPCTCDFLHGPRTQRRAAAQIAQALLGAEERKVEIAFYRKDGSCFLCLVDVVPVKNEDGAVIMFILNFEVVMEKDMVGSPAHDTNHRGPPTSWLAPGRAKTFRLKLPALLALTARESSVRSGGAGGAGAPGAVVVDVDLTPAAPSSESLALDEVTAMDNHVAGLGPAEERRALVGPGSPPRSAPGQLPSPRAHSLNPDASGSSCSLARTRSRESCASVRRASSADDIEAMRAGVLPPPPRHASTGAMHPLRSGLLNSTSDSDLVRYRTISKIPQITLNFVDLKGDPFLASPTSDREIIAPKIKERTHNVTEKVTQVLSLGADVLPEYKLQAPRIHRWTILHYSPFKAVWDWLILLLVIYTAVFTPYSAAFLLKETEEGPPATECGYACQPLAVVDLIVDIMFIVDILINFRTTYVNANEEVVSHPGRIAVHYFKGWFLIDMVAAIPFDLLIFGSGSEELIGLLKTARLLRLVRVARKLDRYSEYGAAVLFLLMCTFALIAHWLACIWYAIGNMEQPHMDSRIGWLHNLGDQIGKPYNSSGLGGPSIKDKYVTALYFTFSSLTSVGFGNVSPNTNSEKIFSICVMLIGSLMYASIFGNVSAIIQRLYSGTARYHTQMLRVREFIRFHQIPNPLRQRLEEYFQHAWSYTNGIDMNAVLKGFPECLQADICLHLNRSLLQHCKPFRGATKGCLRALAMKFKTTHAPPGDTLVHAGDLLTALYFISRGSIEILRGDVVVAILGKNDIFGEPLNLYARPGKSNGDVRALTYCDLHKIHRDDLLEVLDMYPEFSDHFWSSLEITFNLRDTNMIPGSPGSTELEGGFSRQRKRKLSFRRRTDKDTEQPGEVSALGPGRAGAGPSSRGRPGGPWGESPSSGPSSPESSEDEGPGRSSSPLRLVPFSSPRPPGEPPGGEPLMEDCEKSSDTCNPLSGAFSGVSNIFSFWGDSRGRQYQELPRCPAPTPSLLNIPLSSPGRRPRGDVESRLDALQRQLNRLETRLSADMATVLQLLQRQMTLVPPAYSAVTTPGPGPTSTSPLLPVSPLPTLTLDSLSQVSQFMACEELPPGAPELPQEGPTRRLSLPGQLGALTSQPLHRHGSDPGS
row,Structure (SMILES),"hERG current change (%, negative = inhibition) at 1uM"
1,CCc1nnc(NS(=O)(=O)c2ccc(N/C=C\C(=O)c3cccc4ccccc34)cc2)s1,9.01%
2,COc1ccccc1-n1c(O)c(C=NCCN2CCNCC2)c(=O)[nH]c1=O,8.95%
3,Cc1ccc(C)c(OCC(O)CN2CCC(CN3C(=O)c4cccc5cccc(c45)C3=O)CC2)c1.Cl (centres unmarked),8.5%
4,O=C(COC(=O)Cc1c(Cl)cccc1Cl)Nc1ccccc1-c1ccccc1,0.167%
5,CCOc1ccc(N(C(C)C(=O)N2CCCCCC2)S(C)(=O)=O)cc1 (centres unmarked),0.174%
6,Cc1cccc(OCCCC(=O)N2CCCc3ccccc32)c1C,11.7%
7,COc1ccc(CCNC(=O)CC2Oc3ccc(Cl)cc3NC2=O)cc1OC (centres unmarked),-7.02%
8,Cc1[nH+]csc1CCOC(=O)c1ccc(N2CCOCC2)c([N+](=O)[O-])c1.[Cl-],-2.61%
9,O=C(O)c1c2c(nc3ccccc13)/C(=C/c1ccc(O)cc1)CCC2,8.46%
10,C=CCNC(=O)C1CCN(S(C)(=O)=O)CC1,4.99%
11,COc1ccc(C(=O)NC2CCN(CC(=O)NCc3ccccc3F)CC2)cc1,6.33%
12,Cc1ccc(OC(=O)CCC(=O)Nc2ccc(C)c(C)c2)cc1,13.2%
13,Nc1ncnc(Nc2ccc(S(N)(=O)=O)cc2)n1,3.85%
14,COC(=O)c1ccc(SCC(=O)NC2CCCCC2)c([N+](=O)[O-])c1,5.43%
15,Clc1ccc(Nc2ccc(-n3ccnc3)nn2)cc1Cl,2.97%
16,CCCCC(=O)N/N=C/c1c(O)n(CCCC)c(=S)[nH]c1=O,10%
17,COc1cc(C(=O)N/N=C2\CCS(=O)(=O)c3ccc(F)cc32)cc(OC)c1OC,12.8%
18,CN1C(=O)/C(=N\OC(=O)c2ccccc2Cl)c2ccccc21,2.24%
19,O=S(=O)(NCC(c1ccco1)N1CCN(c2ccccc2F)CC1)c1ccccc1 (centres unmarked),3.95%

row,Structure (SMILES),"hERG current change (%, negative = inhibition) at 1uM"
1,CCN(CC)CCN(C(=O)c1ccc(S(=O)(=O)N2CCOCC2)cc1)c1nc2cc3c(cc2s1)OCCO3.Cl,7.39%
2,CC(C)(C)NC(=O)C1CCCN(S(=O)(=O)c2ccc(-n3cnnn3)cc2)C1 (centres unmarked),11.8%
3,O=[N+]([O-])c1ccc(-c2nnc3cccc(Cl)n23)cc1,4.02%
4,C=CCN1C(=NC(=O)CCC(=O)O)SC2CS(=O)(=O)CC21 (centres unmarked),8.11%
5,CCOC(=O)c1csc(NC(=O)CCSc2ccccc2)n1,15.6%
6,O=C1OCc2cc(NC(=O)C34CC5CC(CC(C5)C3)C4)ccc21,19.4%
7,COc1ccc(-c2cc(C(=O)N3CCCC(C(F)(F)F)C3)c3ccccc3n2)cc1 (centres unmarked),7.3%
8,CC(C)(C)c1ccc(C(=O)Nc2cccc3ncccc23)cc1,11.9%
9,Cc1ccc(OCC(=O)N2CCN(Cc3ccc([N+](=O)[O-])cc3)CC2)cc1.O=C(O)C(=O)O,-85%
10,CCOC(=O)c1cc(NC(=O)N2CCOCC2)c(C)nc1C,5.75%
11,O=C(Cc1ccccc1F)OCC(=O)N1CCc2ccccc21,5.45%
12,CCN(CC)S(=O)(=O)c1ccc(/C(O)=C(\C#N)c2nc3ccccc3n2C)cc1,-0.574%
13,O=C(NC(=S)N1CCN(C/C=C/c2ccccc2)CC1)c1c(F)cccc1F,2.6%
14,CCOc1ccc(OCCOCCn2ccnc2)cc1,10.6%
15,CC(c1ccccc1)n1cnc2ccccc21 (centres unmarked),13.5%
16,COC(=O)c1cc(OC)c(OC)cc1NC(=O)CN1C(=O)c2ccccc2C1=O,-4.66%
17,CN(C)C(CNC(=O)Cc1cccc(C(F)(F)F)c1)c1ccccc1 (centres unmarked),7.99%
18,COc1ccc(NC(=O)Nc2cc(C)ccc2OC(F)F)c(OC)c1,4.33%
19,CCOC(=O)C(=Cc1ccccc1OC)C(=O)OCC,-2.59%

row,Structure (SMILES),"hERG current change (%, negative = inhibition) at 1uM"
1,CCOC(=O)CCCc1ccc(/C(C)=N/NC(=S)NC)cc1,12.6%
2,CCOC(=O)c1ccc2c(c1)nc(SCC(=O)N1CCCCC1)n2CC,-1.04%
3,Cc1c(Br)c([N+](=O)[O-])nn1C(C)C(=O)Nc1ccc2c(c1)OCO2 (centres unmarked),-0.696%
4,CCCCCc1ccc(C(=O)CCCC)c(=S)[nH]1,11.8%
5,COc1ccc(N(CC(=O)NCc2ccco2)S(=O)(=O)c2ccccc2)cc1,7.59%
6,CCCNC(=O)c1ccc(CNc2c(N3CCC(C(=O)OCC)CC3)c(=O)c2=O)cc1,10.9%
7,O=C(CSc1nnc(CNC(=O)c2ccccc2F)o1)c1ccccc1,-4.77%
8,O=C(c1ccc2c(Cl)c3c(nc2c1)CCCC3)N1CCC(N2CCCCC2)CC1,-12.6%
9,CCOCCCNC(=O)C1CCN(S(=O)(=O)N2CC(C)CC(C)C2)CC1 (centres unmarked),20.9%
10,O=C(CCc1ccc(O)c(O)c1)N/N=C/c1ccc2c(c1)OCO2,4.77%
11,COC(=O)C1=C(c2ccc(Cl)c(C(F)(F)F)c2)C[C@@H]2CC[C@H]1N2C(=O)N1CCCC1,5.61%
12,Nc1nc(N)nc(-c2ccc(Cl)cc2)n1,5.35%
13,CN(C)C(CNC(=O)CSc1nc2ccccc2c(=O)n1Cc1ccco1)c1ccccc1 (centres unmarked),-6.81%
14,O=S(=O)(Nc1ncccn1)c1ccc(NC(=S)Nc2ccc(Cl)cc2)cc1,9.66%
15,Cc1cc(C(=O)N/N=C/c2cn(C)nc2C)c2ccccc2n1,5.11%
16,Cc1ccc2[nH]c(=O)c3cc(C(=O)NCC4CCCO4)sc3c2c1 (centres unmarked),5.31%
17,COc1ccc(N2CCN(C(=O)c3ccc4[nH]c(C)c(C)c4c3)CC2)cc1,15.1%
18,Cn1c(SCC(=O)Nc2ccccc2)nnc1C(F)(F)F,9.84%
